# Reference: the supplement of paper PMC8728848
# This is one part of the list.
# B1: Na-CTL-1 (Necator americanus) (protein)
# chain: MQRSFLLLLVVLAGAWAVNTTIPLKLMGGFTPMKYQCVGRVSDIWADVLFLIESSDMITKSGFRQVIAFITATTKKMTIGQDEKQTRVGFITYGEEAKLIYDLDHWRSTEKLSDLVQKIPYVKSSGTNIAAAIALANKVFNSPTHRPNVPKVMVIVANGLKKGSQNPIPVATAFKDFGGIIITIEYTQYDNIQVPILKKIASEGYNIRSNDEDFSVRTLTNMLLQANCFCPDHYVPFRVNNPEFGCFVTAKIPSMWRDAAEMCRAVEEGKLVKVENEEKAAFIMKLVGPKKEAWIGLRYYGNKFQWTDGTKLNADDFNLWPEDIKELNGPHCVSMYQDQKDKKYYWRAGKCLEDMRYVCEVQPCSASNYCSEPVFMYRQKHRALLPAPPPPPN
# How the values were obtained:
# Test in all cases: glycan array binding signal (z-score within array); higher = stronger binding
# Conditions in all cases: glycan notation: IUPAC condensed, linker removed
# [1] = target: Gal(b1-4)GlcNAc(b1-2)[Gal(b1-4)GlcNAc(b1-6)]Man(a1-6)[GlcNAc(b1-4)][Gal(b1-4)GlcNAc(b1-2)Man(a1-3)]Man(b1-4)GlcNAc(b1-4)GlcNAc
# Summary of the method: (§1)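 Negative Z-scores can be read as non-binding. The Z-score is calculated within each array and then averaged across arrays of one protein sequence at different concentrations or buffers and across linkers. Arrays, 3228 in all, were curated from the Consortium for Functional Glycomics database and kept only where the protein sequence was available.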
# [2] = target: Gal(b1-4)GlcNAc(b1-2)[Gal(b1-4)GlcNAc(b1-6)]Man(a1-6)[GlcNAc(b1-4)][Gal(b1-4)GlcNAc(b1-2)[Gal(b1-4)GlcNAc(b1-4)]Man(a1-3)]Man(b1-4)GlcNAc(b1-4)[Fuc(a1-6)]GlcNAc
# Summary of the method: as §1
# [3] = target: Gal(b1-4)GlcNAc(b1-3)Gal(b1-3)GalNAc
# Summary of the method: as §1
# [4] = target: Gal(b1-4)GlcNAc(b1-3)Gal(b1-3)GlcNAc
# Summary of the method: as §1
# [5] = target: Gal(b1-4)GlcNAc(b1-3)Gal(b1-4)Glc
# Summary of the method: as §1
# [6] = target: Gal(b1-4)GlcNAc(b1-3)Gal(b1-4)GlcNAc
# Summary of the method: as §1
# [7] = target: Gal(b1-4)GlcNAc(b1-3)Gal(b1-4)GlcNAc(b1-2)Man(a1-3)[Gal(b1-4)GlcNAc(b1-3)Gal(b1-4)GlcNAc(b1-2)Man(a1-6)]Man(b1-4)GlcNAc(b1-4)GlcNAc
# Summary of the method: as §1
# [8] = target: Gal(b1-4)GlcNAc(b1-3)Gal(b1-4)GlcNAc(b1-2)Man(a1-3)[Gal(b1-4)GlcNAc(b1-3)Gal(b1-4)GlcNAc(b1-2)Man(a1-6)]Man(b1-4)GlcNAc(b1-4)[Fuc(a1-6)]GlcNAc
# Summary of the method: as §1
# [9] = target: Gal(b1-4)GlcNAc(b1-3)Gal(b1-4)GlcNAc(b1-2)[Gal(b1-4)GlcNAc(b1-3)Gal(b1-4)GlcNAc(b1-6)]Man(a1-6)[Gal(b1-4)GlcNAc(b1-3)Gal(b1-4)GlcNAc(b1-2)Man(a1-3)]Man(b1-4)GlcNAc(b1-4)GlcNAc
# Summary of the method: as §1
# [10] = target: Gal(b1-4)GlcNAc(b1-3)Gal(b1-4)GlcNAc(b1-2)[Gal(b1-4)GlcNAc(b1-3)Gal(b1-4)GlcNAc(b1-6)]Man(a1-6)[Gal(b1-4)GlcNAc(b1-3)Gal(b1-4)GlcNAc(b1-2)Man(a1-3)]Man(b1-4)GlcNAc(b1-4)[Fuc(a1-6)]GlcNAc
# Summary of the method: as §1
# [11] = target: Gal(b1-4)GlcNAc(b1-3)Gal(b1-4)GlcNAc(b1-3)Gal(b1-4)GlcNAc
# Summary of the method: as §1
# [12] = target: Gal(b1-4)GlcNAc(b1-3)Gal(b1-4)GlcNAc(b1-3)Gal(b1-4)GlcNAc(b1-2)Man(a1-3)[Gal(b1-4)GlcNAc(b1-3)Gal(b1-4)GlcNAc(b1-3)Gal(b1-4)GlcNAc(b1-2)Man(a1-6)]Man(b1-4)GlcNAc(b1-4)GlcNAc
# Summary of the method: as §1
# [13] = target: Gal(b1-4)GlcNAc(b1-3)Gal(b1-4)GlcNAc(b1-3)Gal(b1-4)GlcNAc(b1-2)Man(a1-3)[Gal(b1-4)GlcNAc(b1-3)Gal(b1-4)GlcNAc(b1-3)Gal(b1-4)GlcNAc(b1-2)Man(a1-6)]Man(b1-4)GlcNAc(b1-4)[Fuc(a1-6)]GlcNAc
# Summary of the method: as §1
# [14] = target: Gal(b1-4)GlcNAc(b1-3)Gal(b1-4)GlcNAc(b1-3)Gal(b1-4)GlcNAc(b1-2)[Gal(b1-4)GlcNAc(b1-3)Gal(b1-4)GlcNAc(b1-3)Gal(b1-4)GlcNAc(b1-6)]Man(a1-6)[Gal(b1-4)GlcNAc(b1-3)Gal(b1-4)GlcNAc(b1-3)Gal(b1-4)GlcNAc(b1-2)Man(a1-3)]Man(b1-4)GlcNAc(b1-4)[Fuc(a1-6)]GlcNAc
# Summary of the method: as §1
# [15] = target: Gal(b1-4)GlcNAc(b1-3)Gal(b1-4)GlcNAc(b1-3)Gal(b1-4)GlcNAc(b1-3)Gal(b1-4)GlcNAc(b1-2)Man(a1-3)[Gal(b1-4)GlcNAc(b1-3)Gal(b1-4)GlcNAc(b1-3)Gal(b1-4)GlcNAc(b1-3)Gal(b1-4)GlcNAc(b1-2)Man(a1-6)]Man(b1-4)GlcNAc(b1-4)GlcNAc
# Summary of the method: as §1
# [16] = target: Gal(b1-4)GlcNAc(b1-3)Gal(b1-4)GlcNAc(b1-3)Gal(b1-4)GlcNAc(b1-3)Gal(b1-4)GlcNAc(b1-2)Man(a1-3)[Gal(b1-4)GlcNAc(b1-3)Gal(b1-4)GlcNAc(b1-3)Gal(b1-4)GlcNAc(b1-3)Gal(b1-4)GlcNAc(b1-2)Man(a1-6)]Man(b1-4)GlcNAc(b1-4)[Fuc(a1-6)]GlcNAc
# Summary of the method: as §1
# [17] = target: Gal(b1-4)GlcNAc(b1-3)Gal(b1-4)GlcNAc(b1-3)Gal(b1-4)GlcNAc(b1-3)Gal(b1-4)GlcNAc(b1-2)[Gal(b1-4)GlcNAc(b1-3)Gal(b1-4)GlcNAc(b1-3)Gal(b1-4)GlcNAc(b1-3)Gal(b1-4)GlcNAc(b1-6)]Man(a1-6)[Gal(b1-4)GlcNAc(b1-3)Gal(b1-4)GlcNAc(b1-3)Gal(b1-4)GlcNAc(b1-3)Gal(b1-4)GlcNAc(b1-2)Man(a1-3)]Man(b1-4)GlcNAc(b1-4)[Fuc(a1-6)]GlcNAc
# Summary of the method: as §1
# [18] = target: Gal(b1-4)GlcNAc(b1-3)Gal(b1-4)GlcNAc(b1-3)Gal(b1-4)GlcNAc(b1-3)Gal(b1-4)GlcNAc(b1-3)Gal(b1-4)GlcNAc(b1-2)Man(a1-3)[Gal(b1-4)GlcNAc(b1-3)Gal(b1-4)GlcNAc(b1-3)Gal(b1-4)GlcNAc(b1-3)Gal(b1-4)GlcNAc(b1-3)Gal(b1-4)GlcNAc(b1-2)Man(a1-6)]Man(b1-4)GlcNAc(b1-4)GlcNAc
# Summary of the method: as §1
# [19] = target: Gal(b1-4)GlcNAc(b1-3)Gal(b1-4)GlcNAc(b1-3)Gal(b1-4)GlcNAc(b1-3)Gal(b1-4)GlcNAc(b1-3)Gal(b1-4)GlcNAc(b1-2)Man(a1-3)[Gal(b1-4)GlcNAc(b1-3)Gal(b1-4)GlcNAc(b1-3)Gal(b1-4)GlcNAc(b1-3)Gal(b1-4)GlcNAc(b1-3)Gal(b1-4)GlcNAc(b1-2)Man(a1-6)]Man(b1-4)GlcNAc(b1-4)[Fuc(a1-6)]GlcNAc
# Summary of the method: as §1
binder,measurement,setting,value
B1,glycan array binding signal (z-score),[1],-0.418
same,glycan array binding signal (z-score),[2],0.131
same,glycan array binding signal (z-score),[3],-0.697
same,glycan array binding signal (z-score),[4],-0.153
same,glycan array binding signal (z-score),[5],0.514
same,glycan array binding signal (z-score),[6],-0.36
same,glycan array binding signal (z-score),[7],0.037
same,glycan array binding signal (z-score),[8],0.009
same,glycan array binding signal (z-score),[9],2.03
same,glycan array binding signal (z-score),[10],0.121
same,glycan array binding signal (z-score),[11],0.293
same,glycan array binding signal (z-score),[12],0.567
same,glycan array binding signal (z-score),[13],0.418
same,glycan array binding signal (z-score),[14],0.481
same,glycan array binding signal (z-score),[15],0.487
same,glycan array binding signal (z-score),[16],2.87
same,glycan array binding signal (z-score),[17],0.461
same,glycan array binding signal (z-score),[18],0.78
same,glycan array binding signal (z-score),[19],0.499
